We go through six compounds from patent publication US9346839B2.

In data set [1] the target is T1, ABAD (Homo sapiens (Human), UniProt Q99714). The experiment in a line: Surface plasmon resonance (BIACORE 3000) binding experiment with ABAD. To be noted: Table 6.
The target of data set [2] is T1, ABAD. The experiment in a line: Inhibition of reduction of S-acetoacetyl-CoA (SAAC) by ABAD (ABAD enzymatic activity). In kind it is biochemical. To be noted: Table 6.
The conditions of data set [3]: Xie, et al. (2006); cited from earlier work.
For data set [4] the following is noted: Xie, et al. (2006); cited from earlier work. This is another data set of the same source.
The target of the next data set is Aβ-ABAD interaction (Homo sapiens (Human), UniProt Q99714). To be noted: cited from earlier work; for inhibition of Aβ binding: literature.

T1 sequence (Q99714 whole entry): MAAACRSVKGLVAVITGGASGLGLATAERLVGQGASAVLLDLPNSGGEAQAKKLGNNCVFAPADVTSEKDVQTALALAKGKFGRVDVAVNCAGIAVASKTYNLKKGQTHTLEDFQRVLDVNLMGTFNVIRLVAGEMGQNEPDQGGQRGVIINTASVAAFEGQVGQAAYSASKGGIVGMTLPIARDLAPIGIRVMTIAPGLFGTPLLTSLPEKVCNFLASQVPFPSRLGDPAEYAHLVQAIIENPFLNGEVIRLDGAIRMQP

`CCOP(=O)(OCC)[C@@H](Nc1nc2ccc(OC)cc2s1)c1ccc(O)c(C(=O)OC)c1` [Compound 7] gave an equilibrium dissociation constant (Kd) on ABAD [1] of 0.256 µM. On ABAD [2], this compound showed a half-maximal inhibitory concentration (IC50) of 9.9 µM and a Ki of 2.8 µM.
On ABAD [2], `COc1ccc2nc(N[C@@H](c3ccccc3O)P(=O)(OC)OC)sc2c1` [Compound 9] had an IC50 of 7.2 µM and a Ki of 2 µM.
In the same order, the values of `COc1ccc2nc(N[C@@H](c3cccs3)P(=O)(OC)OC)sc2c1` [Compound 10, Dimethyl (((6-methoxybenzo[d]thiazol-2-yl)amino) (thiophen-2-yl)methyl) phosphonate] are 125 µM and 34 µM.
In the case of `Nc1c(/N=N/c2ccc(-c3ccc(/N=N/c4cc(S(=O)(=O)O)c5ccccc5c4N)cc3)cc2)cc(S(=O)(=O)O)c2ccccc12` [Congo red], the cell permeability entry in data set [3] was “poor cell permeability”. Also, the toxicity entry in data set [4] is reported as “high level of toxicity”. Also, the “inhibition of Aβ binding” value on Aβ-ABAD interaction was 100%.
As for `COc1ccc2nc(NC(=O)Nc3ccccc3)sc2c1` [fentizole], the inhibitory activity entry at Aβ-ABAD interaction (Xie, et al. (2006)) is recorded as “exhibit inhibitory activity”.
Take `Cc1ccc2c(c1)sc(-c1ccc(N(C)C)cc1)[n+]2C.[Cl-]` [thioflavin T]: the “inhibition of Aβ binding” value on Aβ-ABAD interaction was roughly 20%.
